Consider 47 molecules from PubChem BioAssay AID493208 (National Center for Advancing Translational Sciences (NCATS), 2011).

Structures are written as SMILES. The campaign covered roughly 44,000 compounds. About 340 (0.77%) were called active. Roughly 5% stayed inconclusive and do not appear here. Calls come from the whole dose curve; as a rule, active = well fitted inhibition curve with a large enough effect; inconclusive = small, poorly fitted or top-dose-only effect; inactive = flat fitted curve, though single readings scatter. The list shows a part of the results.
Potency is the fitted concentration of half-maximal effect.

This experiment can be described thus: Acumen qHTS Assay for Inhibitors of the mTORC1 Signaling Pathway in MEF (Tsc2-/-, p53-/-) Cells: Sytravon.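 For activity change, negative = inhibition: plate controls were DMSO for no effect and rapamycin for full effect.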 Note: nearly all actives have a fitted effect of over 50% in size. The note with it: phospho-rpS6 immunofluorescence/PI, 24 h; series mostly up to 38.3 µM; activity change, negative = inhibition: at the top concentration. Summed up:
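Tsc2-/-, p53-/- mouse embryonic fibroblasts (empty-vector line) exposed to compound 24 hrs at 37 C, fixed, immunostained for phospho-rpS6 and counterstained with propidium iodide. Acumen laser scanning gives % positive cells from Alexa 488/PI ratio, thresholded using 7.5 nM rapamycin; PI count gives viability.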
On the technique in general: In qHTS, concentration-response curves come from the screen itself.
In the case of `COc1ccc(NC(=O)c2ccc(NC(=O)CCS(=O)(=O)c3cccs3)cc2)cc1`, the “activity change, negative = inhibition” value is inactive: -23.4%.

For the molecule `CCOc1ccc2c(c1)c(=O)c(S(=O)(=O)c1ccc(Cl)cc1)cn2Cc1ccccc1C`, the “activity change, negative = inhibition” value is inactive: -17.2%.

`O=C(Nc1ccc(Cl)c(-c2nc3cc(Cl)ccc3o2)c1)c1cc2ccccc2o1`: the “activity change, negative = inhibition” value is inactive: -4.62%.

As to `CCOC(=O)c1c(S(=O)(=O)NCC(=O)N(C)c2ccc(C)cc2)c(C)n(C)c1C`, the “activity change, negative = inhibition” value is inactive: -5.6%.

In the case of `Cc1ccccc1NS(=O)(=O)c1nnc(NC(=O)c2ccco2)s1`, the “activity change, negative = inhibition” value was inactive: -3.66%.

Consider `Cc1ccc(C)c(CN2C(=O)c3ccccc3S(=O)c3ccc(C(=O)NCCC4=CCCCC4)cc32)c1` (configuration not stated), for which the “activity change, negative = inhibition” value was inactive: -0.655%.

Turning to `COc1ccc(CCC(=O)NCCc2csc(-c3cccc(C)c3)n2)cc1`, the “activity change, negative = inhibition” value was inactive: 0.175%.

In the case of `CCc1ccccc1N1C(=O)N(CC(=O)c2ccc(OC)cc2)c2ccccc2S1(=O)=O`, the “activity change, negative = inhibition” value is inactive: -7%.

As to `CCc1cccc(NC(=O)Cn2nc3c4cc(F)ccc4n(Cc4cccc(C)c4)cc-3c2=O)c1`, the “activity change, negative = inhibition” value was inactive: -8.98%.

Turning to `COC(=O)CCN(C(=O)C1CCN(S(=O)(=O)c2c(C)noc2/C=C/c2ccccc2F)CC1)c1ccccc1`, the “activity change, negative = inhibition” value was inactive: -0.821%.

Turning to `CC(C)Oc1ccc(C(=O)Nc2nonc2-c2ccc(OC(C)C)cc2)cc1`, the “activity change, negative = inhibition” value is inactive: -0.581%.

With `CCCNC(=O)c1cnc2c(-c3ccc(OCC)c(OCC)c3)c(C)nn2c1-c1ccccc1`, the “activity change, negative = inhibition” value is inactive: -6.63%.

For the molecule `CCOC(=O)c1cc(C)n(CC2CCC(C(=O)Nc3cc(OC)cc(OC)c3)CC2)c1C` (configuration not stated), the “activity change, negative = inhibition” value is inactive: -3.48%.

Regarding `COc1cc(NC(=O)CC(c2cccs2)N2Cc3ccccc3C2=O)cc(OC)c1OC` (configuration not stated), the “activity change, negative = inhibition” value was inactive: 0.269%.

With `CCN(CCCNC(=O)Cn1ncc2c([nH]c3ccc(C)cc32)c1=O)Cc1ccccc1`, the “activity change, negative = inhibition” value was inactive: -2.52%.

For the molecule `COc1ccc(NC(=O)C(=O)NCc2ccco2)cc1`, the “activity change, negative = inhibition” value was inactive: 4.91%.

`COc1cccc(CN(C(=O)c2cccc(C)c2)C2CCS(=O)(=O)C2)c1` (configuration not stated): the “activity change, negative = inhibition” value was inactive: -6.91%.

`CC(=O)c1ccc(NC(=O)Cn2nc(C(F)(F)F)c3c2CCCC3)cc1`: the “activity change, negative = inhibition” value was inactive: 1.72%.

For the molecule `COc1ccc(OC)c(-c2noc(N3CCN(c4cccc(C)c4C)CC3)n2)c1`, the “activity change, negative = inhibition” value was inactive: -18%.

On to `CCSc1nn(CC(=O)Nc2cccc(Cl)c2)c(N)c1S(=O)(=O)c1ccc(OC)cc1`, for which the “activity change, negative = inhibition” value is inactive: -6.48%.

For `CCc1ccc(NC(=O)Cn2c(=O)n(-c3cc(C)cc(C)c3)c(=O)c3oc4ccccc4c32)cc1`, the “activity change, negative = inhibition” value was inactive: 0.835%.

Regarding `COc1ccc(-c2nc(SCC(=O)Nc3ccc4c(c3)OCCO4)c(-c3ccccc3)[nH]2)cc1`, the “activity change, negative = inhibition” value was inactive: -18.7%.

Regarding `Cc1ccc(CSc2oc(-c3cccs3)nc2S(=O)(=O)c2ccc(C)cc2)cc1`, the “activity change, negative = inhibition” value is inactive: 0%.

As for `COC(=O)CC1Oc2ccc(C)cc2-n2cc(-c3ccc(C)cc3)nc21` (configuration not stated), the “activity change, negative = inhibition” value is inactive: 2.56%.

In the case of `COC(=O)c1ccccc1NC(=O)C1=C(C)C(=O)OC12CCC(C)CC2` (configuration not stated), the “activity change, negative = inhibition” value is inactive: -14%.

As to `Cc1ccc2oc(C(=O)Nc3sc4c(c3C(=O)NCc3cccnc3)CCCC4)cc(=O)c2c1`, the “activity change, negative = inhibition” value was inactive: 4.25%.

For the molecule `Cc1ccc(-n2nc3c(=O)n(CCCC(=O)NC(C)c4ccccc4)nc(C)c3c2C)cc1` (configuration not stated), the “activity change, negative = inhibition” value was inactive: -4.25%.

Consider `CCOC(=O)/C(C#N)=C/c1ccc(-c2ccc(C)cc2)o1`, for which the “activity change, negative = inhibition” value was inactive: 6.92%.

With `CC(C)CC(=O)Nc1nnc(S(=O)(=O)N2CCc3ccccc32)s1`, the “activity change, negative = inhibition” value was inactive: 9.21%.

For `COc1ccccc1Cn1cc(C(=O)c2ccc(C)cc2)c(=O)c2cc(F)cc(F)c21`, the “activity change, negative = inhibition” value is inactive: -13.6%.

As for `CCCN(CCC)C(=O)Cn1c(=O)n(Cc2ccc(C(=O)NCCc3ccc(Cl)cc3)cc2)c(=O)c2ccccc21`, the “activity change, negative = inhibition” value is inactive: 7.2%.

For the molecule `COc1ccccc1NS(=O)(=O)c1cc2c(cc1Cl)NC(=O)CO2`, the “activity change, negative = inhibition” value is inactive: 5.75%.

Turning to `CCOc1ccc(CCNC(=O)CSc2cc(=O)n(C)c3ccc(Cl)cc23)cc1OCC`, the “activity change, negative = inhibition” value was inactive: -1.3%.

With `CCCc1cnc2c(c1SCc1ccc(C(F)(F)F)cc1)c(=O)n(C)c(=O)n2C`, the “activity change, negative = inhibition” value was inactive: 0.477%.

As for `CC(C)Oc1ccc(CNC(=O)c2ccc(Cn3c(=O)c4cccn4c4cccnc43)cc2)cc1`, the “activity change, negative = inhibition” value was inactive: 4.44%.

Regarding `Cc1ccc(NC(=O)CSc2ccc(-c3sc(-c4ccccc4)nc3C)nn2)cc1F`, the “activity change, negative = inhibition” value is inactive: -0.111%.

Turning to `Cc1cccc(N2CCN(C(=O)CCSCc3ccccc3F)CC2)c1C`, the “activity change, negative = inhibition” value was inactive: 5.49%.

As for `COc1ccccc1N1CCN(C(=O)Cn2ncc3c(=O)oc4ccc(C)cc4c32)CC1`, the “activity change, negative = inhibition” value is inactive: 0.682%.

With `CC(=O)c1ccc(NC(=O)Cn2c(=O)n(Cc3ccco3)c(=O)c3sc4ccccc4c32)cc1`, the “activity change, negative = inhibition” value was inactive: -8.22%.

Turning to `Cc1cccc(CNC(=O)c2cnc3sc(N4CCCCCC4)nn3c2=O)c1`, the “activity change, negative = inhibition” value was inactive: -2.83%.

Regarding `COc1ccc(-c2nsc(NC(=O)c3oc4cc(C)c(C)cc4c3C)n2)cc1`, the “activity change, negative = inhibition” value is inactive: -2.81%.

Take `Cc1ccc(N(Cc2cccs2)C(=O)COc2cccc(C)c2)cc1`: the “activity change, negative = inhibition” value is inactive: 1.69%.

Consider `COc1ccc(C2=NC(C)(C)N(CC(=O)Nc3ccc(F)c(F)c3)C2=O)cc1`, for which the “activity change, negative = inhibition” value is inactive: 1.46%.

On to `Cc1nn2c(=O)cc(COC(=O)CNC(=O)c3ccc(F)cc3)nc2s1`, for which the “activity change, negative = inhibition” value is inactive: -6.97%.

For the molecule `CCN1CCN(c2cc(C)c3cc(NC(=O)c4cc(Cl)ccc4OC)ccc3n2)CC1`, the Potency is active: 2610 nM.

Consider `Cc1ccc(-n2ncc(C(=O)NCCCN3CCCCC3)c2C2CCN(C(=O)OC(C)(C)C)CC2)cc1`, for which the “activity change, negative = inhibition” value was inactive: -28.6%.

On to `COc1cccc(OC)c1C(=O)Nc1ccc(S(=O)(=O)Nc2nccc(C)n2)cc1`, for which the “activity change, negative = inhibition” value was inactive: -2.76%.
